# The list shows a part of the results. At the low end of the ranking the order means little.
# Target: T1, GST-Rok-C97-191 (UniProt O34857)
# T1 sequence: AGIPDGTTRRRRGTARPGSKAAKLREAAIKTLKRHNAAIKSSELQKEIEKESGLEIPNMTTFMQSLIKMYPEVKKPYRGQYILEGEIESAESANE
# Test: protein binding microarray;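 note: rank score from −0.5 (least bound) to 0.5 (best bound)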
# Conditions: Rok is a gene silencer of Bacillus subtilis; high values mean tight binding; most listed sequences are background and not binding sites; double strand, one strand shown
row,Sequence,binding signal [E-score]
1,GACTGCGC,-0.268
2,CTCAATGA,-0.0275
3,CAAATAAA,0.188
4,CCCAAACA,-0.161
5,GTAGACTA,0.29
6,AGGCGTAA,-0.123
7,CTGTCGCA,-0.0246
8,GTTTCTCA,0.141
9,GATCGGCA,-0.135
10,GAACGAAC,-0.117
11,ATAGTCCG,-0.0735
12,AAGGACAG,-0.169
13,ATCCTCCA,-0.00828
14,CGGCGGAC,-0.281
15,CGTCCACG,-0.161
16,AGCATCCT,-0.0122
17,AATATCCC,-0.0132
18,AAATTGTA,0.255
19,GGCCGGTA,0.0437
20,ACTGCCAC,-0.165
21,CCCGCGAG,-0.355
22,CAGTCCAC,-0.234
23,AACATCTC,-0.0846
24,GGTTATCA,0.0988
25,ACATAAAT,0.181

row,Sequence,binding signal [E-score]
1,ACCTGCCG,-0.213
2,CATAGACG,-0.0205
3,AACTTTGC,0.171
4,ATGTGATA,0.253
5,AAAAGATG,-0.225
6,ACATTGTG,0.0481
7,ATTGTCAG,-0.0244
8,ACGTCCAC,-0.225
9,CGTGTACA,0.108
10,AGTGTGTG,-0.139
11,CGGTGGAG,-0.0359
12,AAAATTAG,0.192
13,GGGTCGTA,-0.0724
14,CCATCGCC,-0.187
15,GATCTAAC,0.0254
16,CACTTGAC,-0.137
17,CGCTTGAG,-0.0324
18,CGTTGGAA,-0.164
19,CTACCACA,0.343
20,ATGTAAAG,0.164
21,GCCTAAAA,-0.115
22,ACCACTAC,0.188
23,CAACTTCC,0.00507
24,AGAGTATG,0.000327
25,AACAGGCT,-0.162

row,Sequence,binding signal [E-score]
1,ATTGTGCG,0.189
2,AGTGATCG,-0.122
3,ACGGCTAC,-0.148
4,CTCTATGA,0.0427
5,TAGCTAGA,0.192
6,GCTAAGCA,-0.0119
7,CGGGCTAG,-0.177
8,AACGCGGT,-0.112
9,AGCGATGA,-0.0838
10,AGTGTAGG,0.0625
11,GAAGTGTA,0.11
12,AGGATCGA,0.152
13,TCATTCGA,-0.0739
14,CCGCATTC,0.0507
15,ATAAGCAT,0.114
16,AGTCAGAC,-0.121
17,AGACACCG,-0.228
18,AGCAAATC,-0.0398
19,ATCTATGC,-0.0314
20,ACCCCGAA,-0.306
21,GTACCGGA,0.0446
22,TCGTAGAA,0.236
23,ACCTTGAT,0.106
24,CCTCCCTC,-0.133
25,CGTCTTCC,-0.286

row,Sequence,binding signal [E-score]
1,ATATTTGA,0.082
2,AGTCTCTC,-0.0911
3,GGTATAGA,0.221
4,ATCACACC,-0.0624
5,CCCGGCTA,-0.0894
6,ATTGCAGG,-0.207
7,ACTCAGCT,-0.0323
8,ATAACGAG,0.102
9,CGTCCAGA,-0.164
10,CCTGCGAA,-0.172
11,CTCTAATC,0.0499
12,CTCCCCAA,-0.222
13,AAGTCTGC,0.00543
14,GCAAAGGC,-0.228
15,TACTGTAA,0.323
16,TCGGCCGA,-0.374
17,CAGCTTCG,-0.0599
18,GAAGGAAA,-0.238
19,CGTTACCA,0.258
20,GTCAGGCA,-0.163
21,TCTACCAA,0.315
22,TATTAGAA,0.293
23,ACCTGCCA,-0.295
24,ACCCGCAT,-0.181
25,GGCTAAAC,-0.0896

row,Sequence,binding signal [E-score]
1,CGGCAAAA,-0.0738
2,ACCAAACT,0.259
3,AGGGTGCG,-0.184
4,AAGGGGCA,-0.234
5,TGAGTGCA,-0.0754
6,AAAACAGA,0.0436
7,TCAAGAAA,-0.0225
8,ACAGAAGC,-0.0456
9,GTCCGGTA,-0.0421
10,CAACCGGA,-0.237
11,ACCGTGGA,-0.011
12,GGAATCCC,-0.086
13,AGACGAGG,-0.237
14,CGCAAATA,0.178
15,CTCCGAAC,-0.207
16,CATTTCGA,-0.0901
17,ACCATCAC,0.052
18,GCACTGAA,-0.138
19,CGGATAGC,0.0167
20,CCGTATTC,0.0694
21,CATGACGG,-0.0455
22,ACTTGGTA,0.0663
23,CCCAGGAC,-0.194
24,AAAAGCAT,-0.052
25,GAAAGGAC,-0.224

row,Sequence,binding signal [E-score]
1,AAACGTAT,0.307
2,GAATACTA,0.209
3,CCTAAGGC,-0.0966
4,AAGAGGCG,-0.171
5,GGAGGAGA,-0.18
6,ATGCGCCA,-0.032
7,CGCAAGGA,-0.288
8,TACCTTAA,0.207
9,AATCCTTA,0.107
10,GCCGCTTA,-0.148
11,CAAACTGA,-0.143
12,TCTGCAGA,0.0564
13,CGGCACAC,-0.139
14,ACCTGAGC,-0.097
15,ACGATAGA,0.208
16,CCCTACAG,-0.152
17,ATGGCCAA,0.217
18,GCGGGAGC,-0.303
19,AATATTAC,0.284
20,GACGGTGA,-0.0734
21,ATGTCGCC,-0.0714
22,GCCTGGCC,-0.301
23,CAGGGGCA,-0.267
24,TATATGGA,0.343
25,AATTAAAG,0.143

row,Sequence,binding signal [E-score]
1,GGCCCAAC,-0.254
2,ATCGGTCA,0.0708
3,GCCATCTA,0.0264
4,CTTGGCTC,-0.0982
5,TACTACCA,0.404
6,ATTGTTAC,0.143
7,CGCGATCC,-0.11
8,GAGATTCC,-0.0406
9,ACGCGGCT,-0.308
10,AAATCCCA,0.123
11,ACCCATTG,-0.0987
12,AAACATGG,-0.0577
13,CATATAGG,0.117
14,CAACCATA,-0.187
15,CTCGCCCC,-0.222
16,CTATCTAC,0.433
17,CGTCCTGA,-0.135
18,CCCGAGGA,-0.129
19,ATCAACAC,-0.0158
20,ATGTTAAT,0.169
21,CCGTATAG,-0.0288
22,TCACTTCA,-0.11
23,TGAGGCCA,-0.304
24,GTGAGGGA,0.0641
25,GCGGCAAA,-0.0471

row,Sequence,binding signal [E-score]
1,AGCATGGA,0.105
2,AAAACCGA,0.0507
3,ATGAGGTA,0.112
4,AGAGCCTC,-0.282
5,GTGTCTAA,-0.0421
6,GGAGCCCC,-0.349
7,GCGCAAGA,-0.093
8,CCCTACCA,0.0486
9,TCATTCCA,-0.0328
10,CTACTCGA,0.136
11,CCCGTGCA,-0.0457
12,GACACAAC,-0.15
13,GCCTATGA,-0.044
14,AGCTCCCA,-0.218
15,AGGCTACA,-0.0622
16,AAATCTTC,0.0559
17,ATCAAATG,-0.0733
18,ACATTCTG,-0.0417
19,AATATGTG,0.199
20,CACGGAAG,0.00148
21,CACACCAC,0.0104
22,GTCGGATA,0.0236
23,CAGGCGGA,-0.16
24,GTAGAGGA,-0.0267
25,ACCGAAGA,0.134

row,Sequence,binding signal [E-score]
1,CTCGATCC,0.0526
2,CGGGCAGA,-0.312
3,GACTTTTA,0.201
4,CTACTGCC,0.0173
5,CTAAGCAG,-0.253
6,ACATCGTG,-0.0131
7,AATCTAGC,0.234
8,GCAAGGGA,-0.166
9,CATAGAGA,0.0156
10,TCGAATCA,-0.12
11,ATTTATAG,0.358
12,GAAGGTGC,-0.236
13,AATGATAC,0.22
14,TAAATCAA,0.178
15,GTCGTTAA,0.136
16,GCAGCACA,-0.15
17,GAGGCCTA,0.0148
18,CGACGGAA,0.00138
19,CCCTTCCA,-0.249
20,CCTGAGCC,-0.316
21,CCTACCGC,0.0131
22,AGTATTGC,0.0149
23,AAAGATAG,0.168
24,GCGTCCTA,-0.0931
25,CTCTACGC,0.00966

row,Sequence,binding signal [E-score]
1,CCTTTATA,0.193
2,ACAATTGC,0.13
3,AGGGGTTC,-0.121
4,CGTTGACC,-0.166
5,CACTCTTA,-0.0274
6,GAGAATAA,0.0913
7,AGGAAAAG,-0.183
8,GGTGATGA,-0.176
9,ATCTGTTG,-0.108
10,CGATCTAC,0.335
11,CATCTCAA,-0.0536
12,TGCTGGAA,-0.107
13,ACCTAACT,0.128
14,CCACGTAA,0.0808
15,CGTGGAGC,0.0609
16,AGATTAAC,0.13
17,ACACGCAT,0.134
18,AAGTATAC,0.273
19,ACAGCACC,-0.133
20,CACCGGGA,-0.297
21,ACCACGAC,-0.19
22,GCAAGCTA,0.0227
23,TGCACGAA,0.0181
24,AGTAGGCG,0.0257
25,GTCAGGAA,-0.15

row,Sequence,binding signal [E-score]
1,CAAACTTA,0.101
2,GATGCCAA,-0.209
3,CATTTAAA,0.112
4,AAGCATTA,0.064
5,CCCTCCCA,-0.186
6,AGGAAAAT,0.177
7,TACTAGTA,0.433
8,CTCCGATA,0.0895
9,GGAATGGA,-0.114
10,CCTCTAGA,-0.0559
11,ATATGAGC,-0.00733
12,AACCTATC,0.152
13,GGCTGCTA,-0.11
14,CAACAGCC,-0.261
15,ACGAATTG,0.183
16,GTGGTCGA,-0.197
17,ACGTAGCG,0.0725
18,GGCCAAGA,0.11
19,GACCGGAC,-0.126
20,AAGCCACC,-0.213
21,AATTGAAT,0.0946
22,GCACGAAC,-0.164
23,CTGGCGGA,-0.283
24,ACACCTAC,0.0429
25,GCCCAAGC,-0.319

row,Sequence,binding signal [E-score]
1,CGACTACC,0.000144
2,CACGGGGC,-0.279
3,TGAGGCAA,-0.148
4,CATGACGA,0.043
5,TCCAAGGA,0.068
6,GGGATGCA,-0.184
7,ACCACACG,0.161
8,CGTACTTA,0.23
9,GATCCCGA,-0.0184
10,CGCGCGAA,0.0798
11,GCTGTAGA,-0.0314
12,GCTATGTA,0.226
13,CTTCCTAC,0.0841
14,CGCGGAGA,-0.25
15,ATACCGTA,0.276
16,AGACGGAA,-0.125
17,GTCATCTA,0.062
18,GCGTTAGA,0.0324
19,CAGAGCTC,-0.157
20,GCAATATA,0.224
21,CTTTAAGC,0.00949
22,AGTCTAAC,0.0311
23,AGGATCAC,-0.0797
24,GGATAGGA,0.012
25,CAATCCAC,-0.074

row,Sequence,binding signal [E-score]
1,CCCTAATC,-0.0259
2,ACTGTGGC,-0.225
3,AGCCTACA,0.00191
4,CCCTTTCG,-0.277
5,ACCAAGGC,-0.154
6,ATGCCACC,-0.123
7,CAGTTGAC,0.0118
8,CAGACATG,-0.197
9,GAACTAGC,0.205
10,ACCTATTG,0.2
11,ATGGCTTA,-0.00631
12,CTTGCTTC,-0.269
13,CGCGTTCA,-0.0369
14,AACGTCCA,-0.202
15,GGGCGGAC,-0.368
16,CGTTTAAA,-0.14
17,AACGCTCT,-0.0799
18,GACAGTGC,-0.306
19,GTAGCACA,0.0948
20,AAAGCCAG,-0.0469
21,AAACCGTC,-0.0773
22,GGCCTCCA,-0.323
23,TGACATCA,-0.115
24,GAACGTTC,0.053
25,GGCGTACC,-0.176

row,Sequence,binding signal [E-score]
1,CGGGCTGC,-0.268
2,CGACTGCC,-0.232
3,ACGAATAA,-0.0222
4,AAAGACGA,0.0425
5,GCAATGTA,0.23
6,GAGCAGAC,-0.089
7,CTGAGTGA,-0.127
8,CGGATGAG,-0.141
9,ACCGATAC,0.0875
10,ACTCTCTA,-0.0467
11,CTCTCAGC,-0.3
12,CTTGAGGC,-0.211
13,AGGAGATC,-0.0805
14,ACGAACTC,-0.0425
15,AATGCTTG,0.0398
16,ATGGAATC,-0.0254
17,AATTCAAC,0.00661
18,CAGAGCGG,-0.191
19,GTGTCAGA,-0.197

# — paper PMC6212790
